Source: the supplement of paper PMC11417369
The other results are listed elsewhere or left out.

tested on: PfHDP1 homeodomain (GST-tagged); experiment: gcPBM binding intensity (ln(normalized median fluorescence intensity)); higher = stronger DNA binding
Summary of the method: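 Probes on an Agilent 4 × 180k array were primer-extended, double-stranded and 36 bp long, taken from intergenic genomic regions, with negative controls added. GST-tagged P. falciparum DNA-binding domains from E. coli, about 25 μg on average, were applied to the array for 1 h in 1× PBS containing 1% milk, 0.2 mg/ml BSA, 0.5% salmon testes DNA and 0.03% Triton X-100. Binding intensity, obtained after Alexa488 anti-GST antibody detection and a 488 nm scan, is the highest Masliner-normalised natural-log median intensity across replicate spots of either probe orientation.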

Row | Sequence | gcPBM binding intensity (ln)
1 | TATAAATACTTAGAAACACACAAAAATATTTTATAA [CACACA_site7259] | 6.55
2 | TGTAATTGTTTAAAGGGTACATATATCAGATGTCTT [XGTACX_site5877] | 6.17
3 | ATAATTCTTTTACTGTGTACATATTATCACTTATTT [XGTACX_site2456] | 7.25
4 | CATTATGTTGTAAATACACACATACAGATACATACA [CACACA_site4565] | 6.61
5 | ATATGCGTTTGCAAATGTACATATTATTTATATATA [XGTACX_site7128] | 8.86
6 | TAAAGGCAAACAAACACACACACATAAATACAGATA [CACACA_site5204] | 7.04
7 | TTTTTTGGTTTTCATGCACACAATTTATAAATCTAT [CACACA_site3106] | 9.76
8 | ATTTTATAACATTCATGTACACATTTCATTTATTTG [XGTACX_site3028] | 6.61
9 | CATATAAATATATATACACACACACCGTAATACATA [CACACA_site9158] | 6.88
10 | TTTTAATATTTTAAGAGTACAGAAATATATAATATG [XGTACX_site4955] | 6.61
11 | AGAGACACTTTTTATTGTACAAGAGGAGGTTACCTT [XGTACX_site8768] | 6.41
12 | ATATAATGGACCATAGTGCATAAAAATAACAAAAAA [GTGCAC_site9558] | 8.62
13 | TTTTTATATTTTATAGTGCAAAAACTTACATAAAAT | 9.18
14 | TGGAAATATATATATATATATACATATATATATAGC [XGTACX_negctrl_site107] | 6.63
15 | TATTTTTTTTCTTTATTTATAACGCTCAATATATTC [GTGCAC_negctrl_site265] | 6.78
16 | AATACCATAATCAATGCACACATAACAAAATATTAT [CACACA_site8873] | 9.19
17 | TACGAAAAAAAAAAAAAAAAAAAAAAACACAAAAAA [CACACA_negctrl_site1643] | 6.01
18 | ACAGTATCAATATGGATAAAAATGTCCATATGCCTG [TGCATGCA_negctrl_site482] | 5.89
19 | TATATAACATATAACACACATACTTAGTATTACATA [CACACA_site3099] | 6.5
20 | TGTTAATAGAAATACGTGCACACTAAAGGGAAAACA [CACACA_site1485] | 9.43
21 | TATGAAGAAAAGAATTGTACGATGTTTATTTTGTAT [XGTACX_site8614] | 6.13
22 | TTGTTATCTACCTGTAGTACATATATTATGTAATAT [XGTACX_site735] | 6.42

Row | Sequence | gcPBM binding intensity (ln)
23 | TTATATATACCTAAGACACACACATATATATATATA [CACACA_site8153] | 9.25
24 | ATTAAATATGTCAAGTGTACAAAATGTAAAAAAAAA [XGTACX_site4119] | 6.78
25 | TAAATATATATATACACACACACCAAAGCAATAGAT [CACACA_site2940] | 7.4
26 | GCCATTGTACCATCCACACACATATAAATATGTATA [CACACA_site7303] | 7.4
27 | TTTAATACGAATGAGGCACACACCTAGTATACATGC [CACACA_site621] | 6.69
28 | TTTAATTTTTTTAAAACACACAAATATATATATATA [CACACA_site3898] | 9.08
29 | CAAAATAATATATATACACACACACCGATATATATA [CACACA_site8082] | 6.83
30 | TATATAAAATATTAATGTACATATAAATATATATAT [XGTACX_site6656] | 7.71
31 | ATTTATGAAAGAAATAGTACACACATAAACATTTGT [XGTACX_site5862] | 6.8
32 | GTAATTAAAATATATACACACAAAGGCTATTAAATA [CACACA_site1011] | 6.53
33 | AATATAATATAATGCACACATAAACAAAAAAAAAAA [CACACA_site783] | 10.5
34 | AACAAAGAAAATACATGTACAAAAAATATTAACGAA [XGTACX_site287] | 7.24
35 | TGGTATTTTGATGATAAAAGGAAATTTTTTTTATAC [XGTACX_negctrl_site111] | 6.07
36 | GTTAGCATATTAAGTTGTACACAATTATTCTTCAAT [XGTACX_site8324] | 7.01
37 | TTACAAAAATTTTGTTCACACATAAAAATATGTTAC [CACACA_site5740] | 6.32
38 | ATATATTTTTCAAAATGTACAAATAATTAAATACCA [XGTACX_site875] | 6.35
39 | TAATAAATTATTTTTTATTATTTTAATAACACTTCA [CACACA_negctrl_site3] | 5.84
40 | ATTAATAATCGAAAGGTGCACTTTGATTTGATAACA | 8.87
41 | TTATTATTTTATCGTAGTACACCTAAATTATAAAAC [XGTACX_site5251] | 6.57
42 | TAATTAAAATTATTTATAAATTAGTATATTTCTATA [CACACA_negctrl_site663] | 6.06
43 | AATTATATATTAAAAAGTACAAGTTAATATAATATA [XGTACX_site2737] | 6.64
44 | TATTGTAATATTATATATATCTATTATGTATATAAA [CACACA_negctrl_site454] | 6.12

Row | Sequence | gcPBM binding intensity (ln)
45 | ATATAAAAAAATTGCACACATAAATATATACATATA [CACACA_site1218] | 10.1
46 | TTTATGTACAGACATATACACACCTCTATAATATAT [CACACA_site730] | 6.82
47 | GATACATAGAAACACACACACATACATATATACATA [CACACA_site3438] | 6.94
48 | CCGATATAATGGAAAACACACAAAAGATATATATAT [CACACA_site2683] | 8.17
49 | ACATACATTTTTAAATGTACATATATATATATATAT [XGTACX_site6751] | 9.31
50 | ATATGGCACATATGTACACACGTATAGATAATATTA [CACACA_site5162] | 6.68
51 | ATTTATTTATTTATATGTACTTAAATGAAAGGAATA [XGTACX_site6024] | 6.41
52 | TTTCAAAATTTTTATTTTAAATAAACATTTATAAAA [CACACA_negctrl_site1588] | 6.08
53 | AATATTATATGGACGTGTCCACATAAACCTATATAT [XGTACX_site2053] | 6.35
54 | ATGAATATATATATTTGTACATATGTATATATATAT [XGTACX_site7527] | 8.64
55 | TATATATTTTTTTCATGTACTTATTATATATATATA [XGTACX_site5321] | 8.47
56 | GGAAATATAAAATCATGTACATATGTATATATAATT [XGTACX_site5491] | 6.47
57 | AGTATAGATGTATACACACACCAAACGTTAAAAAAA [CACACA_site7443] | 6.96
58 | TTAGTAAATACATTTGCACACATTATTTTTTAACAT [CACACA_site5448] | 10.7
59 | TACAAACAGACATATACACACAAAAAAAAAATAAAA [CACACA_site2562] | 6.63
60 | TCGATATATAGACACACACACTTTTAATAATTAAAT [CACACA_site7726] | 6.7
61 | TTATGCAGATAAAAGAGTACATATTCGTTACATACA [XGTACX_site2849] | 6.37
62 | TATATATATATATATATATATATATATATAATATTA [XGTACX_negctrl_site558] | 9.37
63 | AATCATATTTAGATTACACACAGTTTAAATATTTTA [CACACA_site1263] | 6.18
64 | TGTAATGTTTACAACACACAAATTATAAATACAAAA [CACACA_site5047] | 6.53
65 | TATTTAAATGGATGCACACATGCATTAAATAAAATA [CACACA_site3433] | 8.59
66 | TATCATCATGTATGTACACACATACAGATATTATGT [CACACA_site4888] | 6.38

Row | Sequence | gcPBM binding intensity (ln)
67 | AAATACAAAATTGTTACACACATATTAATTATGACA [CACACA_site476] | 6.25
68 | ATATAAATATAGTGTGCACACACATAATATATATAT [CACACA_site8713] | 10.7
69 | TATATTTTAAAATTATGTACATATATAGATAAATGT [XGTACX_site1349] | 6.64
70 | AAAATAAATTGTGAAGGTACACAAATTATTATGTGG [XGTACX_site4196] | 6.38
71 | ATATATATATATAATACACACATCATAAAATATGTA [CACACA_site2518] | 8.86
72 | AAGCCTTAAAAGGAAAGTACGTATATATATATATAT [XGTACX_site8559] | 9.48
73 | ATATTTAATTAAAAGAGTACTTAAATAAAATAAATG [XGTACX_site2149] | 6.33
74 | ATGAAACATGTATATTGTACTCTGGATCAATTTAAT [XGTACX_site6413] | 6.32
75 | AATAAATAAATACATCTCAGTATATAAACAAACAAA [CACACA_negctrl_site1604] | 6.75
76 | AAATTTATTATATATACATGCAATCATAAATAATGT [TGCATGCA_site539] | 6.27
77 | AAGAAAATAGAAAATACACACAGCAAACAGAGGAAT [CACACA_site3785] | 7
78 | AATGTATATATATATATATATATATATATTTATTTA [CACACA_negctrl_site113] | 7.05
79 | ATATATATATATTTATGTACATATATTTTTTTTTTT [XGTACX_site8558] | 8.94
80 | AAGAAAAAAAAAAATATATATACATATATATATATA [TGCATGCA_negctrl_site485] | 8.91
81 | AATACTTATTATGAAACACACACCAAAACTACATAA [CACACA_site270] | 6.95
82 | AAAAAAAAAAAACACACACACACACTAGTATATAAA [CACACA_site4783] | 6.64
83 | GGATATAACAAACACACACACACATATATATATATT [CACACA_site4141] | 6.93
84 | AATACATATAATACAACACACAAGTAATATAAACCT [CACACA_site3597] | 6.95
85 | TTTAAATGAAAAAAAGGTACACAATATTATTCTTAT [XGTACX_site8612] | 6.47
86 | ATCCTAATATTGAACTGTACCTTATATGTTATTATA [XGTACX_site1014] | 6.75
87 | GGTTATATATTTTTTGCACACCAAAAAAGAGAATAT [CACACA_site2731] | 10.1
88 | TATATATATATATATACACACATATATACATATATA [CACACA_site4043] | 9.49
